Experimental data reported in article PMC11030525, “Phosphorylation-Driven Epichaperome Assembly: A Critical Regulator of Cellular Adaptability and Proliferation” (Research Square, 2024).

Target: T1, mCherry-HSP90β-S226E, S255E mutant (UniProt P08238, S226E | S255E)
T1 construct: HSP90β; Expressed beside the endogenous wild-type HSP90; also called mCherry-HSP90β-EE; EE mutant; source: mouse ESCs (SILAC-labelled), transfected, in lysate; HEK293, transfected, in lysate; not shown: mCherry, N-terminal, kept
T1 sequence (P08238 whole entry S226E/S255E): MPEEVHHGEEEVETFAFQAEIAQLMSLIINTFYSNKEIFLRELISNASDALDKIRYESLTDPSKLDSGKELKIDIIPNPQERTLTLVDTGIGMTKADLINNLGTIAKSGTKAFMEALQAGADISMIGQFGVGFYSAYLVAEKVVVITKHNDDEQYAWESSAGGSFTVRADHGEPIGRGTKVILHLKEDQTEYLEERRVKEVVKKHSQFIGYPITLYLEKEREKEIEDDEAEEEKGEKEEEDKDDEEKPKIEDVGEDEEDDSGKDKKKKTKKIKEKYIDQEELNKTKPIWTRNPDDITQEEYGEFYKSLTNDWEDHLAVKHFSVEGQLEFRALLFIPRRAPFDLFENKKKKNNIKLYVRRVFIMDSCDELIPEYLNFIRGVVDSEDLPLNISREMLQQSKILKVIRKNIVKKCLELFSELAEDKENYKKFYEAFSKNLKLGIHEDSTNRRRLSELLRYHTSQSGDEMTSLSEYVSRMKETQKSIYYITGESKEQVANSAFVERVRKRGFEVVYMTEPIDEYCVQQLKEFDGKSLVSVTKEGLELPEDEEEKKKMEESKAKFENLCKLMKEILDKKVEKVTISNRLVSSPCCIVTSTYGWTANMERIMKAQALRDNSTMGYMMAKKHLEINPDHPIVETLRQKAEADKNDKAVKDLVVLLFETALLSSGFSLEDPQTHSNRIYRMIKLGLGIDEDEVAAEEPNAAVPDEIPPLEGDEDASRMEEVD
Test: affinity purification with mass spectrometry; mCherry-HSP90β EE or AA precipitated on RFP Selector resin from lysates of SILAC-labelled (heavy or light) mouse ESCs, 4°C, 90 min; heavy and light samples precipitated separately, then combined; SDS-PAGE and quantitative MS
Settings: partners not purified

fold change against m7 (SILAC ratio EE : AA): 1.4 fold
B1: Oct4, mouse (natural protein)
chain: not shown
notes: Oct4 transcription factor, mouse, endogenous in embryonic stem cells; source: endogenous, mouse ESC lysate
